Measurements published in PubChem BioAssay AID1745845 (National Center for Advancing Translational Sciences (NCATS), 2022).
Out of some 360,000 compounds screened, about 2,600 (0.72%) were called active. Inconclusive means that the source gave no clear call. Such entries were picked first, then a sample of the others. Calls follow the shape of the dose curve; as a rule, active = well fitted inhibition curve with a large enough effect; inconclusive = small, poorly fitted or top-dose-only effect; inactive = no such curve, though single readings can be large or run the other way. Potencies beside an inconclusive call are fits to weak or partial responses and may not hold up.

Assay: Primary qHTS for Inhibitors of ATXN expression; also: nearly all actives have a fitted effect of over 55% in size
Details: HEK-293 ATXN2-luciferase reporter, luminescence, 24 h; activity change, negative = inhibition: at 57 µM (top of the series)
Method in brief: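 qHTS (up to 57 uM final) was run with 24 h compound exposure of reporter cells at 37 °C. Each well was multiplexed: SteadyGlo luminescence measured ATXN2-luciferase expression after a fluorogenic Gly-Phe-AFC viability readout (25 uM final).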
% is scaled to controls: 0 for no effect and ±100 for the full control effect; potency is read from the fitted curve at half-maximal effect; tags tell the direction and shape of the fitted curve.

Potency, active:
CCc1ccc(CNC(=O)c2cc3c(C)nc4ccccc4c3o2)cc1 20 µM
OCCCCNCc1ccc(OCc2ccc(Cl)cc2Cl)cc1 25.1 µM
CC(C)C[C@@H](CN1CCC[C@@H]1CN1C(=S)NC[C@@H]1Cc1ccccc1)N1C[C@H](Cc2ccc(O)cc2)N(CC2CCCCCC2)C1=S 22.4 µM
COc1ccc(-c2sc3ccc(N4CCOCC4)cc3c2C#CCO)cc1 28.2 µM
CC(C)N(C(=O)N1CCN(c2ccnc3cc(Cl)ccc23)CC1)C(C)C 25.1 µM
N#Cc1c(NCCN)nc(-c2ccco2)c2c1CCCC2 12.6 µM
Cc1cc(NC(=O)CN(C)S(=O)(=O)c2ccc3c(c2)CCCC(=O)N3)ccc1Br 15.8 µM

Potency, inconclusive:
O=c1c(Cc2ccccc2)c(O)nc2n1CCS2 0.1 µM [inhibitor, full curve, poor fit]
CN(Cc1cc(Cl)cc(Cl)c1)[C@H]1C[C@H]2c3[nH]c4ccccc4c3CCN2C(=O)[C@H]1CO 31.6 µM [inhibitor, single point]
CC1CCN(C(=O)c2ccc(CSc3nc4ccncc4n3Cc3ccc(F)cc3)cc2)CC1 0.141 µM [inhibitor, full curve, poor fit]
CCOC(=O)C1=C(CN(CC)Cc2ccccc2)NC(=O)NC1c1ccc(Cl)cc1 (stereo not given) 22.4 µM [inhibitor, single point]
Clc1ccc2c(NCc3ccccc3)ccnc2c1 20 µM [inhibitor, partial curve, poor fit]
Cc1cc(C)c2nc(NNC(=O)c3ccc(S(=O)(=O)N4CC(C)CC(C)C4)cc3)sc2c1 (stereo not given) 33.6 µM [inhibitor, single point]
CCC(=O)c1ccc(OCC(O)CN(CCc2ccccc2)Cc2ccccc2)cc1 (stereo not given) 35.5 µM [inhibitor, single point]
N#Cc1cccnc1N1CCN(C(=O)c2cccc3c2C(=O)c2ccc(Cl)cc2S3(=O)=O)CC1 39.8 µM [inhibitor, single point]
CN1CCN(CC(=O)N2CCn3c4c(c5cc(C6CCCCC6)ccc53)CCCC42)CC1 (stereo not given) 39.8 µM [inhibitor, single point]
C=CCOc1ccc(/C=C2\SC(=S)N(CCC(=O)O)C2=O)cc1 1.58 µM [inhibitor, full curve]
Cc1ccc(-c2cc3nc(C)cc(N4CCN(C(=O)c5ccoc5)CC4)n3n2)cc1 28.2 µM [inhibitor, partial curve, poor fit]
CCCC(=O)N1CCN(c2ccc(NC(=O)c3cc4ccccc4o3)cc2)CC1 25.1 µM [inhibitor, single point]
COc1ccc(S(=O)(=O)N2CCC(C(=O)NCCC(=O)Nc3cccc(Cl)c3)CC2)cc1 28.2 µM [inhibitor, partial curve, poor fit]
Clc1ccc(-c2noc(CSc3nnc(-c4ccncc4)n3-c3ccccc3)n2)cc1 31.6 µM [inhibitor, single point]
CCCCN(CCCC)S(=O)(=O)c1ccc(NC(=O)c2ccc([N+](=O)[O-])cc2Cl)cc1 39.8 µM [inhibitor, single point]
CC(=O)NC(C)c1cc(F)c2cccnc2c1O (stereo not given) 39.8 µM [inhibitor, single point]
CN(C)N1C(N)=C(C#N)C(c2cccc3ccccc23)C2=C1CC(c1ccccc1)CC2=O (stereo not given) 11.2 µM [inhibitor, partial curve, poor fit]
Cc1nc(SCc2nc3ccc(F)cc3[nH]2)c2oc3ccccc3c2n1 25.1 µM [inhibitor, partial curve, poor fit]
O=c1oc2ccccc2c(O)c1Cc1cc(Cl)c2cccnc2c1O 35.5 µM [inhibitor, single point]
CN(C)c1ccc(NC(=S)c2ccccn2)cc1 7.94 µM [inhibitor, partial curve, poor fit]
Cc1ccc(C(c2c(C)n(C)n(-c3ccccc3)c2=O)c2c(C)n(C)n(-c3ccccc3)c2=O)s1 6.31 µM [inhibitor, partial curve, poor fit]
CC1Sc2ccc(C(=O)Nc3ncccc3O)cc2NC1=O (stereo not given) 10 µM [inhibitor, partial curve, poor fit]
Cc1ccc(C(C)C)c(OCc2ccc(-c3nnco3)cc2)c1 25.1 µM [inhibitor, partial curve]
Cc1ccc(C(c2cc(Cl)c3cccnc3c2O)N2CCN(C)CC2)cc1 (stereo not given) 17.8 µM [inhibitor, single point]
CCC1=Nc2cc(C(=O)N3CCC(C)CC3)ccc2Sc2ccc(C)cc21 39.8 µM [inhibitor, single point]
C[C@@]1(C(=O)Nc2ccc(F)nc2)CCCN1c1nc(Nc2cc(C3CC3)[nH]n2)c2cccn2n1 34.3 µM [inhibitor, partial curve, poor fit]
CC(C)=CCc1c(-c2ccc(O)cc2O)oc2c3c(cc(O)c2c1=O)OC(C)(C)C=C3 37.7 µM [inhibitor, single point]
Cn1cncc1C#Cc1c(-c2ccsc2)sc2ccccc12 39.8 µM [inhibitor, partial curve, poor fit]
O=C(CCc1ccncc1)NC1CCCc2c1cnn2-c1ccc(F)cc1F (stereo not given) 17.8 µM [inhibitor, partial curve, poor fit]
COc1ccc(OCC(=O)N2CCN(S(=O)(=O)c3ccc(Cl)s3)CC2)cc1 37.7 µM [inhibitor, single point]
CNC1CCCN(c2c(F)cc3c(=O)c(C(=O)O)cn(C4CC4)c3c2OC)C1 (stereo not given) 0.0685 µM [inhibitor, partial curve, poor fit]
CCCCN(CC)S(=O)(=O)c1ccc(C(=O)N=c2sc3cc(NC(C)=O)ccc3n2C)cc1 10 µM [inhibitor, partial curve, poor fit]
CC(N)c1csc(Nc2nncc3ccccc23)n1 (stereo not given) 17.8 µM [inhibitor, partial curve, poor fit]
O=C1OCC2=C1C(c1ccc(F)cc1)c1cc3c(cc1N2)OCO3 (stereo not given) 8.44 µM [inhibitor, partial curve, poor fit]
COc1ccc(-c2nc(N/N=C(\C)c3ccc(O)cc3)c3ccccc3n2)cc1 39.8 µM [inhibitor, single point]
CC1(C(=O)Nc2cccc(OC(F)(F)F)c2)Cc2c(-c3cccc(C(N)=O)c3)ccnc2O1 (stereo not given) 39.8 µM [inhibitor, partial curve, poor fit]

Activity change, negative = inhibition, inactive:
Cn1c(=O)c2c(nc(SCC(=O)N3CCCCCC3)n2C)n(C)c1=O 0.587%
CCCCCCSc1ccc([C@@H]2[C@H]3C(=O)N(C)C(=O)[C@H]3[C@]3(C(=O)OC)CCCCN23)cc1OC -13.8%
CC(=O)N1c2ccc(S(=O)(=O)N3CCCC3C(=O)Nc3cccc(F)c3)cc2CC1C (stereo not given) -12%
CCCCc1nc2n[nH]c(N)c2c2c1CCC2 -5.72%
CCOC(=O)N1CCN(C(=O)C(=O)Nc2sc3c(c2C(=O)O)CC(C)(C)OC3)CC1 -8.82%
COc1ccccc1C(=O)OCC(=O)Nc1cccc(S(=O)(=O)N2CCCC2)c1 -3.99%
CCOC(=O)c1c(S(=O)(=O)N2CCN(c3cc(Cl)ccc3C)CC2)c(C)n(C)c1C -20.4%
CCSc1nnc(-c2cccc(S(=O)(=O)N(CC)CC)c2)n1Cc1ccccc1 -25.7%
Cc1cc(C(=O)N/N=C/c2c3ccccc3cc3ccccc23)n[nH]1 -18.1%
Cc1cc(C)cc(NC(=O)C2CCCN(c3nnc(-n4c(C)ccc4C)s3)C2)c1 (stereo not given) -14.3%
CCOc1ccc(C(C)C)cc1S(=O)(=O)Nc1ccc(Cl)cn1 -11.4%
FC(F)(F)c1ccccc1-n1c(CN2CCCCC2)n[nH]c1=S 5.61%
COc1cc(NC(=O)c2cccc([N+](=O)[O-])c2)ccc1NC(=O)c1ccco1 -30.7% [at 11.3 µM]
COCC(=O)Nc1ccc([N+](=O)[O-])cc1C -11.2%
O=C(CN1C(=O)NC2(CCCC2)C1=O)NCc1ccc(Cl)cc1 12.3%
O=C(Nc1ccccc1C(F)(F)F)c1ncn[nH]1 27.4%
Nc1c(Cl)cc(-c2[nH]c3cc(C(=O)NCCO)ccc3c(=O)c2O)cc1Cl 4.2%
O=C(Nc1ccccc1)Nc1ccc(NC(=O)c2ccccc2O)cc1 -1.63%
Cc1ccccc1OCC(=O)N/N=C/c1ccncc1 -0.287%
COC(=O)c1sc(NC(=O)c2cc3c(s2)CCCC3)nc1C 1.86%
O=c1cc(O)c2c(=O)n(-c3ccccc3)c3c(c2o1)CCCCC3 -3.23%
COc1cccc(CNC(=O)c2cc(C3CC3)nc3c2cnn3C(C)C)c1 -26.9%
NC(=O)c1ccsc1NC(=O)COC(=O)Cc1c[nH]c2ccccc12 -15.3%
COc1ccccc1N1CCN(C2=Nc3cccc4cccc2c34)CC1 29.2% [at 11.3 µM]
Cc1cccc(C)c1N=Nc1c(C)cc(O)cc1C -48.7%
Cc1ccc(-c2cc(-c3n[nH]c(=S)n3C)c3ccccc3n2)cc1 4.36%
Cc1ccc(C(C)C)c(OCCNC(=S)Nc2cccc3ccccc23)c1 -28.2%
